Data from the supplement of paper PMC10126150.
Values marked as one replicate rest on one cluster of the flow cell; about a third of the high ones do not repeat.

System: ATP
Test: switch fluorescence ratio, 500 uM ATP over buffer (Cy3 cluster intensity, sum of 5 cycles each) (fold (ratio)); higher = stronger signal-on switching upon ATP binding; sequences stand for … in TCGTCGGCAGCGTCAGATGTGTATAAGAGACAGTTTTTTTTTTTTTTTTTTTTTTTTT…TC
Conditions: aptamer strand: ATP DNA aptamer (quencher-CACCTGGGGGAGTATTGCGGAGGAAGG + anchor), 100 nM annealed; ATP concentration: 500 uM; one replicate
Summary of the method: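 Exposure to 500 uM ATP lasted 15 min at 22 °C before imaging, and a selection-buffer image was taken beforehand, for Cy3-labelled switching-strand clusters on a modified Illumina MiSeq flow-cell annealed to 100 nM quencher-labelled ATP aptamer. Five buffer/ATP cycles were run with NaOH stripping and re-annealing between them. The fluorescence ratio per cluster is summed target-cycle over summed buffer-cycle Cy3 intensity, averaged per switch-domain sequence. Clusters outside 100-1000 RFU were excluded.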

| Sequence | switch fluorescence ratio |
| --- | --- |
| GCCCCAGCTG | 1.71 |
| ATTGTGCCCC | 0.99 |
| CTCATTCCAA | 1.07 |
| GGGTTTATAG | 1 |
| TGTAGTTCCG | 0.931 |
| TTTCGTTTGA | 1.02 |
| ATCATTCACT | 0.991 |
| CGCTCCCGTA | 1 |
| CCAATTTCAG | 1.03 |
| ACGGAGCTAG | 3.19 |
| AGGAACACTT | 1 |
| TGGCTAGGCT | 0.996 |
| CCGGCAGT | 1.49 |
| CGTGTTGGGA | 1.01 |
| TCGGAGTGG | 1.02 |
| ATTGCTGGTG | 1.11 |
| TAATGATGTA | 1.04 |
| CACTCGCGGG | 0.968 |
| TTTGCAAGT | 1.45 |
| CCAATTTAAA | 1.01 |
| TAGAACGAG | 0.996 |
| AGCTCCCCGC | 1.35 |
| CACTCCTGGG | 1.07 |

| Sequence | switch fluorescence ratio |
| --- | --- |
| TCGAGCCGGG | 0.937 |
| CGGTGACAGT | 0.985 |
| TGGAGAGGTT | 1.03 |
| TAGCAATCAT | 1.33 |
| GCCTACTTAT | 1.02 |
| AGCGACTACG | 0.986 |
| CCTGGTGGA | 1.07 |
| ACTTAGTGCG | 1.03 |
| TGGCTCACTT | 1.04 |
| TACCTTACGC | 1.45 |
| CAGCCGCTTA | 2.44 |
| CCACTGCTGT | 1.43 |
| CGGCGGGTTC | 0.997 |
| AGATGGTGGT | 0.972 |
| ATGAATAGTG | 0.988 |
| CTGTAGACCG | 1.04 |
| TGTTATTGCC | 0.972 |
| GGAGCCGTTG | 0.971 |
| TACGTGGCAA | 1.03 |
| GTACAAATCT | 1.02 |
| GTTTAGAACA | 0.966 |
| TCGTCATCTG | 1.01 |
| GAACTGATTT | 1 |

| Sequence | switch fluorescence ratio |
| --- | --- |
| TCGGAACGGC | 0.96 |
| GCCAGCGGGT | 0.976 |
| TCTAACAGGT | 1.03 |
| TTATTTGGTG | 1.06 |
| TAAGCACAGA | 1.15 |
| GCGAGGCTAT | 0.982 |
| TATGTAAAAA | 1.04 |
| CTTCACAGTA | 1.05 |
| AACAGTACCG | 1.12 |
| ACGTAGGATA | 1.13 |
| CGGTATTTGG | 1.01 |
| TCTTTTGTCT | 1.02 |
| GAAGTGGCAG | 1.02 |
| TGTGTTCGGA | 0.998 |
| AACGGAACTC | 1.16 |
| TTCATTAGAG | 1.01 |
| GGACCATCGT | 1.01 |
| CTGTTATTT | 1.01 |
| TTGACGAAGT | 1.01 |
| GATTTTGAGG | 0.968 |
| TCCTTCCATC | 2.22 |
| TTGCCGAACC | 1.25 |
| GATTGTCTGA | 0.999 |

| Sequence | switch fluorescence ratio |
| --- | --- |
| ACGTGCTGTT | 1.01 |
| AAATAAGCA | 0.988 |
| AGGCCCAGGA | 0.989 |
| TACTTGGTAG | 0.961 |
| ACTATCGGAC | 1.11 |
| GCAACAAGCG | 1.02 |
| GGGGTGTACG | 1 |
| CTTCATGTTG | 0.994 |
| AATGTCGTCG | 0.991 |
| CTCTCCTTTT | 1.04 |
| CGGACAGATT | 1 |
| GAGGTATTAA | 0.985 |
| TCATACTTAT | 0.982 |
| AGTTGCTAGC | 1.03 |
| TATAGGTACT | 1.05 |
| GTCGTGACGG | 1.01 |
| AGGTGCGTCC | 1.06 |
| TTAGTTTGAG | 1.01 |
| TATTTCCTCC | 1.29 |
| TGTAGGCTTA | 1.02 |
| TGGTTAATGA | 0.976 |
| ATCGCTTGTC | 1.08 |
| TGAATTCCTT | 0.974 |

| Sequence | switch fluorescence ratio |
| --- | --- |
| TCGGCGAGCG | 0.99 |
| GACTGGCGCG | 1 |
| GCGCCAGCCC | 1.01 |
| AAGGTTTAAT | 1.01 |
| CTTGCCGTCC | 1.01 |
| CTAACGTTAG | 0.999 |
| TTTCTACCTT | 1.14 |
| ATCCATTTTT | 1.05 |
| GGGGTTGCAG | 1.09 |
| TTTCAGGGCA | 1.11 |
| CATAAGGCGG | 1.02 |
| TCTGCGTCGT | 1 |
| CCTTACCATC | 1.19 |
| CACTACGGG | 1.02 |
| GTGCCAGAAA | 1.02 |
| GCTTTTGACA | 1.02 |
| GCATGTATCA | 1.01 |
| GGTCCAGGTA | 0.99 |
| TTCTTGGGGA | 0.988 |
| CGATGGGTGG | 1.01 |
| GAGGTCAG | 1.04 |
| TAGAGACGAG | 0.931 |
| CCACACAGGG | 1.5 |

| Sequence | switch fluorescence ratio |
| --- | --- |
| ACCCGGTTGG | 1.06 |
| GGGGTGCGTA | 1.03 |
| TCGTCTCGT | 0.993 |
| AAAATATGTA | 1.05 |
| ATAGTAATT | 1.03 |
| CCGCCCTTCG | 1.02 |
| AAAGAAAGCA | 1.04 |
| TGAAGCATG | 1.08 |
| TCGTGTGCGC | 1.01 |
| CAACATATGA | 1.02 |
| GAAGGGGAGT | 0.994 |
| ACATTTACCT | 1.35 |
| AGTCCACGGG | 1.09 |
| TTTGTCTACA | 0.974 |
| GATTTGAGGA | 1.03 |
| CGCGGTCAGG | 1.03 |
| GGGCAGAGGT | 0.98 |
| TCAGTGTAGC | 0.992 |
| GTAGATACCG | 0.998 |
| AGGAACGCTT | 1.01 |
| AGGTCAAAAT | 1 |
| TTCAGCTAAA | 1.05 |
| GATAGGGGCC | 0.981 |

| Sequence | switch fluorescence ratio |
| --- | --- |
| GGTATCTTTA | 1.01 |
| AGGGATATGC | 1.01 |
| AGTGGCGCT | 1.03 |
| ATCGTCACGT | 1.01 |
| ATGATGCAGG | 1.02 |
| AGTTGTTACC | 1 |
| CTCGGGTCCT | 0.989 |
| ACCTCTGAAG | 1.28 |
| TCCACGGAGA | 1.1 |
| TCCCCCTCTA | 1.07 |
| ATTGCAAGTG | 0.97 |
| GACAGTCACT | 1.04 |
| GGTACTACGC | 1.14 |
| TCTTGGGTCA | 1.08 |
| TCTTTAGGGC | 1.01 |
| TATGCGCGGA | 1.02 |
| ATAGATGTTA | 0.981 |
| TCTATAAGCG | 1.01 |
| TGCATTGTGG | 0.99 |
